{
  "source": "the supplement of paper PMC8728848",
  "note": "Shown is part of a subset that was picked to be rich in the strongest signals.",
  "data": [
    {"test_system": "Fuc(a1-3)[Gal(b1-4)]GlcNAc(b1-4)Gal(b1-4)[Fuc(a1-3)]GlcNAc", "experiment": "glycan array binding signal (z-score within array); higher = stronger binding", "details": "glycan notation: IUPAC condensed, linker removed", "outline": "(§1)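 The binding signal is a Z-score computed within each array and averaged over linkers. Arrays of the same protein sequence at different concentrations or buffers were also averaged together. Data originate from 3228 arrays in the Consortium for Functional Glycomics database, kept only where the protein sequence was available.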", "values": [
      {"substance": "VWF (Homo sapiens) (chain not printed)", "glycan array binding signal (z-score)": -0.277},
      {"substance": "M-Ficolin G221F A256V (Homo sapiens) (chain not printed)", "glycan array binding signal (z-score)": -0.322},
      {"substance": "Gal 8-short (Homo sapiens) (chain not printed)", "glycan array binding signal (z-score)": -0.762},
      {"substance": "Galectin-8 C-terminal CRD (Homo sapiens) (chain not printed)", "glycan array binding signal (z-score)": -0.3}
    ]},
    {"test_system": "Fuc(a1-3)[Gal(b1-4)]GlcNAc6S", "experiment": "glycan array binding signal (z-score within array); higher = stronger binding", "details": "glycan notation: IUPAC condensed, linker removed", "outline": "as §1", "values": [
      {"substance": "Thrombomodulin Extracellular (Homo sapiens) (chain not printed)", "glycan array binding signal (z-score)": -0.691},
      {"substance": "NCAM1 (Homo sapiens) (chain not printed)", "glycan array binding signal (z-score)": 0.585},
      {"substance": "Gal 8 long (Homo sapiens) (chain not printed)", "glycan array binding signal (z-score)": -0.239}
    ]},
    {"test_system": "Fuc(a1-3)[Gal(b1-4)]GlcNAc", "experiment": "glycan array binding signal (z-score within array); higher = stronger binding", "details": "glycan notation: IUPAC condensed, linker removed", "outline": "as §1", "values": [
      {"substance": "Collectin K1 (Homo sapiens) (chain not printed)", "glycan array binding signal (z-score)": -0.209},
      {"substance": "NCAM1 (Homo sapiens) (chain not printed)", "glycan array binding signal (z-score)": -0.212},
      {"substance": "Gal 3 (Homo sapiens) (chain not printed)", "glycan array binding signal (z-score)": 0.029}
    ]}
  ]
}
